These are yes or no findings as the source states them, for the method shown. For some of these results: Binding seen in cells or lysates may run through a third protein. Some results given as binding are weak or reduced against the parent protein; the word gives no strength. For some of these results: Where a sequence is shown, tags or fusion partners need not be part of it. Each block holds one molecule with its values, some of them ahead of it.
Columns and labels:
[1] = target: GFP-TRIM47 (full-length, WT) (human) (UniProt Q96LD4); experiment: co-IP; HEK293T cells co-transfected with Flag-PLK1 and GFP-TRIM47 (WT or 1-80 aa); 0.5% Lubrol-Px lysis buffer (50 mM KCl, 2 mM CaCl2, 20% glycerol, 50 mM Tris-HCl pH 7.4), protein G beads, 4 °C; immunoblot
[2] = target: N-terminal GFP-TRIM47 truncation mutant (1-80 aa) (human) (UniProt Q96LD4); experiment: as above
GST-TRIM47 (human) = GST-TRIM47 (human) (UniProt Q96LD4); experiment: pull-down; purified GST-TRIM47 or GST incubated overnight at 4 °C with lysates of transfected HEK293T cells (Flag-PLK1, GFP-PLK1 or GFP-PLK1 deletion mutants); glutathione agarose; immunoblot; only the target purified
[3] = target: TRIM47, endogenous in Hep3B cells (human (endogenous in Hep3B)) (UniProt Q96LD4); experiment: co-IP; endogenous proteins in native (primitive) Hep3B cells; 0.5% Lubrol-Px lysis buffer, protein G beads, 4 °C; immunoblot
[4] = target: GFP-PLK1 (full-length) (human) (UniProt P53350); experiment: co-IP; HEK293T cells co-transfected with GFP-PLK1 and Flag-TRIM47 or its deletion mutants, lysed after 24 h; immunoprecipitation with an anti-GFP antibody; immunoblot
[5] = target: TRIM47 (tripartite motif-containing 47), full-length, in pGBKT7 as bait (human) (UniProt Q96LD4); experiment: two-hybrid; TRIM47 in pGBKT7 as bait, PLK1 in pGADT7 as prey, Y2HGold yeast; blue colonies on QDO/X/A (SD/-Ade/-His/-Leu/-Trp/X-α-Gal) plates count as interaction
[6] = target: TRIM47 (tripartite motif-containing 47), full-length, in pGBKT7 as bait (human) (UniProt Q96LD4); experiment: two-hybrid; yeast two-hybrid system screen combined with bioinformatic analysis (Figure S4); library and constructs not described

Amino acid sequences for entries named in this document (tags omitted). A change or cut given only in a name is not applied to a line headed by its entry.
UniProt P53350: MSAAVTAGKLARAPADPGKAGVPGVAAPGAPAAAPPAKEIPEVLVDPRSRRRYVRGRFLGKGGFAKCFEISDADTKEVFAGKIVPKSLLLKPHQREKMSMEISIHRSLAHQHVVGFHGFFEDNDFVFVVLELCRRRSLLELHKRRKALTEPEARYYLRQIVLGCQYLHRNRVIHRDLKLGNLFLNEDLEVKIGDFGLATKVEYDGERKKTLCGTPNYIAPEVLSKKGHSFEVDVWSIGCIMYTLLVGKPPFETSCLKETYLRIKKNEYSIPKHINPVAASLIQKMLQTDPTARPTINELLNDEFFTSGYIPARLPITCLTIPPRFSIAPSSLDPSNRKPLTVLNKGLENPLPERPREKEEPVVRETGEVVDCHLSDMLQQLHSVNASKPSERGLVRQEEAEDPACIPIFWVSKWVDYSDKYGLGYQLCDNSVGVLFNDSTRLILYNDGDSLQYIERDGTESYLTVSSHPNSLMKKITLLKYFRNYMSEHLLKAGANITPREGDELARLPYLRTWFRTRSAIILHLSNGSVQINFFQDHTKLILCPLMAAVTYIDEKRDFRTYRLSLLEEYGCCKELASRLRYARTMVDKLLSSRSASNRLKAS

Molecule: Flag-PLK1 (from UniProt P53350 1-603)
binding [1]: binds | binding [2]: binds | binding (GST-TRIM47 (human)): binds

Molecule: PLK1, endogenous in Hep3B cells (from UniProt P53350 1-603)
binding [3]: binds

Molecule: GFP-PLK1 protein kinase fragment (1-310 aa) (from UniProt P53350 1-310) (domain or fragment)
binding (GST-TRIM47 (human)): binds

Molecule: Flag-TRIM47 mutant 1-409 aa (from UniProt Q96LD4 1-409) (domain or fragment)
binding [4]: binds

Molecule: GFP-PLK1 (full-length) (from UniProt P53350 1-603)
binding (GST-TRIM47 (human)): binds

Molecule: PLK1 (polo-like kinase 1), in pGADT7 as prey (from UniProt P53350 1-603)
binding [5]: binds | binding [6]: binds

Molecule: Flag-TRIM47 (full-length) (from UniProt Q96LD4 1-638)
binding [4]: binds

binding [4]: no binding
B1: Flag-TRIM47 mutant 177-409 aa (domain or fragment, UniProt Q96LD4 177-409)
chain: LEESLCPRHLRPLERYCRAERVCLCEACAAQEHRGHELVPLEQERALQEAEQSKVLSAVEDRMDELGAGIAQSRRTVALIKSAAVAERERVSRLFADAAAALQGFQTQVLGFIEEGEAAMLGRSQGDLRRQEEQRSRLSRARQNLSQVPEADSVSFLQELLALRLALEDGCGPGPGPPRELSFTKSSQAVRAVRDMLAVACVNQWEQLRGPGGNEDGPQKLDSEADAEPQDLE

binding [4]: no binding
B2: Flag-TRIM47 mutant 81-409 aa (domain or fragment, UniProt Q96LD4 81-409)
chain: QGSGPGSGPGPAPALAPEPSAPSALPSVPEPSAPCAPEPWPAGEEPVRCDACPEGAALPAALSCLSCLASFCPAHLGPHERSPALRGHRLVPPLRRLEESLCPRHLRPLERYCRAERVCLCEACAAQEHRGHELVPLEQERALQEAEQSKVLSAVEDRMDELGAGIAQSRRTVALIKSAAVAERERVSRLFADAAAALQGFQTQVLGFIEEGEAAMLGRSQGDLRRQEEQRSRLSRARQNLSQVPEADSVSFLQELLALRLALEDGCGPGPGPPRELSFTKSSQAVRAVRDMLAVACVNQWEQLRGPGGNEDGPQKLDSEADAEPQDLE

binding [4]: no binding
B3: Flag-TRIM47 mutant 410-638 aa (domain or fragment, UniProt Q96LD4 410-638)
chain: STNLLESEAPRDYFLKFAYIVDLDSDTADKFLQLFGTKGVKRVLCPINYPLSPTRFTHCEQVLGEGALDRGTYYWEVEIIEGWVSMGVMAEDFSPQEPYDRGRLGRNAHSCCLQWNGRSFSVWFHGLEAPLPHPFSPTVGVCLEYADRALAFYAVRDGKMSLLRRLKASRPRRGGIPASPIDPFQSRLDSHFAGLFTHRLKPAFFLESVDAHLQIGPLKKSCISVLKRR
